Reference: PubChem BioAssay AID493208 (National Center for Advancing Translational Sciences (NCATS), 2011)
In all, about 44,000 compounds went through this assay and about 340 (0.77%) were called active. Not shown: some 5% with an inconclusive outcome. Calls follow the shape of the dose curve; as a rule, active = well fitted inhibition curve with a large enough effect; inconclusive = small, poorly fitted or top-dose-only effect; inactive = flat fitted curve, though single readings scatter. The list shows a part of the results.

Experiment: Acumen qHTS Assay for Inhibitors of the mTORC1 Signaling Pathway in MEF (Tsc2-/-, p53-/-) Cells: Sytravon;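 also: plate controls were DMSO for no effect and rapamycin for full effect; nearly all actives have a fitted effect of over 50% in size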
Conditions: phospho-rpS6 immunofluorescence/PI, 24 h; series mostly up to 38.3 µM; activity change, negative = inhibition: at the top concentration
Method in brief: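 Tsc2-/-, p53-/- MEFs (empty-vector stable line) in DMEM + 10% FBS were treated with compounds 24 h at 37 degree Celsius, fixed, and immunostained for phospho-rpS6 (Alexa-488) with propidium iodide counterstain. Laser-scanning cytometry gave % positive cells, normalized against 7.5 nM rapamycin and DMSO.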

Activity change, negative = inhibition, inactive:
COc1ccc(OC)c(CCNc2nc3ccccc3c3nc(-c4cccnc4)nn23)c1 -1.45%
Brc1ccc(-n2nc(-c3ccccc3)c3cnc4cc5c(cc4c32)OCO5)cc1 -1.73%
Cc1ccc2[nH]c(CSc3nnc(NC(=O)c4ccc(Cl)cc4)s3)cc(=O)c2c1 -10.2%
Cc1cc(S(=O)(=O)C(CNC(=O)COc2ccc(Cl)cc2)c2cccs2)ccc1F (centres undefined) 4.01%
CCCN(CCC)C(=O)c1c2c(nc3ccccc13)C(=O)N(C1CCCCC1)C2 -2.61%
Cc1ccc(CCNC(=O)C2CCN(Cc3nc(-c4ccccc4C)oc3C)CC2)cc1 3.63%
CCc1ccc(OCC2c3cc(OC)c(OC)cc3CCN2C(=O)COc2ccccc2)cc1 (centres undefined) 6.44%
CCCN(C(=O)c1coc(=O)c2ccccc12)c1ccccc1C 9.39%
Cc1ccc(N2C(=O)CSC23C(=O)N(CC(=O)Nc2ccc(C(C)C)cc2)c2ccccc23)cc1C (centres undefined) 2.99%
COc1cccc(NC(=O)C(Cc2ccccc2)NS(=O)(=O)c2ccc3c(c2)oc(=O)n3C)c1 (centres undefined) -0.831%
Cc1coc2cc3oc(=O)c(CC(=O)NCCc4ccccc4)c(C)c3cc12 5.48%
COc1ccc(-n2nc(C(=O)Nc3cccc(C)n3)c3c4ccccc4n(C)c3c2=O)cc1Cl 6.17%
CCOc1ccc(CCNC(=O)CCc2cn(Cc3ccc(F)cc3)c3ccccc23)cc1 -4.38%
O=C(Nc1cccnc1Cl)c1cc(-c2cccc(Cl)c2)on1 -8.43%
CCOc1ccc(CCNC(=O)c2cc3c(-c4ccc(OC)c(OC)c4)nn(C)c3s2)cc1OCC -5.75%
CCOc1ccc(NC(=O)Cn2cc(C(=O)c3ccco3)c3ccccc32)cc1 2.04%
CC(C)n1c(=N)c(C(=O)NCc2ccccc2)cc2c(=O)n3ccccc3nc21 -22.8%
COc1cc(NC(=O)c2cc(S(=O)(=O)N3CCc4ccccc43)cn2C)cc(OC)c1OC -4.18%
Cc1ccc(C)c(CN2C(=O)c3ccccc3S(=O)(=O)c3ccc(C(=O)N4CCCCC4)cc32)c1 -11.2%
COc1ccc(OC)c(NC(=O)c2cnn(-c3ccc(C)cc3)c2C2CCNCC2)c1 -11.4%
CCc1ccccc1N(C)C(=O)c1cc2c(=O)oc3ccccc3c2s1 2.34%
CC(=O)c1cccc(NC(=O)c2noc3c2CCCC3)c1 1.09%
CC(C)CC(=O)Nc1c(C(=O)N2CCN(c3ccccc3)CC2)oc2ccccc12 -1.09%
O=C(COc1ccccc1[N+](=O)[O-])N(Cc1ccco1)c1ccccn1 -1.61%
COc1cc2c(=O)n(CCc3ccccc3)c(=O)n(CC(=O)Nc3ccccc3)c2cc1OC 2.25%
O=C(C1CCC1)N1CCc2cc(S(=O)(=O)NCc3ccc(F)cc3)ccc21 1.24%
COc1ccc(C)cc1NC(=O)N1CCCn2nc(C)cc21 4.16%
COc1ccc(OC)c(NC(=O)/C=C/c2ccc(C)o2)c1 10.7%
CCOc1ccccc1NC(=O)Cn1c(=O)n(-c2cccc(C)c2)c(=O)c2c1c1cc(OC)ccc1n2C -8.34%
COc1ccc(C(=O)Cn2c(=O)c(-c3cc(C)ccc3NC(C)=O)nc3ccccc32)cc1 4.21%
CC(=O)c1cc2c(cc1N/C(=N/S(=O)(=O)c1ccc(Br)cc1)c1ccccc1)OCO2 -2.13%
O=C(Cn1c(=O)n(CC2CCC(C(=O)NCCc3ccccc3)CC2)c(=O)c2ccccc21)Nc1cccc(F)c1 (centres undefined) -0.761%
COc1ccc(C2C=C(c3ccccc3)Nc3nc(NS(=O)(=O)c4ccc(Cl)cc4)nn32)cc1 (centres undefined) -0.258%
COC(=O)c1ccccc1NC(=O)N1CCc2c(sc3c2CCCC3)C1c1ccc(F)cc1 (centres undefined) 0%
Cc1ccccc1Cn1c(CN2CCCC(C)C2)nc2c1c(=O)n(C)c(=O)n2C (centres undefined) -8.44%
CCOc1ccc(C(=O)c2cn(CC(=O)Nc3ccc(Cl)cc3)c3cc4c(cc3c2=O)OCCO4)cc1 -4.23%
CCc1cccc(C)c1NC(=O)c1cccc(C(=O)Nc2c(C)cccc2CC)c1 -3.84%
COc1ccc(Cl)cc1NC(=O)c1cc2c(s1)-c1ccccc1OC2 -6.23%
CCc1ccc(OC(C)C(=O)Nc2c(C(=O)c3ccccc3)oc3ccccc23)cc1 (centres undefined) 0.911%
COCCNC(=O)CCc1nc2cccnc2n1Cc1ccc(OC)cc1 -15.3%
CS(=O)(=O)N(CC(=O)NCCSc1ccccc1)c1cc(C(F)(F)F)ccc1Cl 1.49%
Oc1c(Br)cc(Br)cc1-c1nc2ccccc2s1 9.9%
COc1ccc(OC)c(NC(=O)CSc2cn(CC(=O)N3CCOCC3)c3ccccc23)c1 -0.525%
COc1cccc(C2C(C(=O)Nc3ccccc3)=C(C)Nc3nc(-c4ccccc4)nn32)c1 (centres undefined) -1.25%
CCCN(CCC)C(=O)C1CCCN(S(=O)(=O)c2ccc3c(c2)oc(=O)n3C)C1 (centres undefined) -4.72%
Cc1ccc(-c2nc(CS(=O)CC(=O)N3CCN(c4ccccc4)CC3)c(C)o2)cc1 (centres undefined) -0.604%
O=C(c1ccccc1)c1ccccc1NC(=O)c1ccccc1C(=O)O -5.23%
COc1ccc(-c2noc(-c3ccc(NC4CCCC4)c([N+](=O)[O-])c3)n2)cc1 -6.94%
CC(=O)c1ccc(N2CCN(C(=O)c3cc4cc5cc(C)ccc5nc4s3)CC2)cc1 -5.69%
Cc1ccc(C)c(NC(=O)C2CCCN(S(=O)(=O)c3ccc4[nH]c(=O)ccc4c3)C2)c1 (centres undefined) -18.9%
Cc1ccc(C(=O)c2oc3ccccc3c2NC(=O)c2cc(-c3ccccc3)on2)cc1F -0.656%
O=C(Nc1ccc(SC(F)F)cc1)c1cc(-c2ccc3c(c2)OCCO3)on1 0.232%
Cc1noc(Cn2c(=O)c3cc4c(cc3n(CC(=O)Nc3cccc(Cl)c3)c2=O)OCO4)n1 -0.247%
CCOc1ccc(CNC(=O)c2c(C)nn(-c3ccc(F)cc3)c2-n2cccc2)cc1 -7.39%
CC(=O)Nc1nonc1-c1nnc(SCC(=O)Nc2ccc(C)cc2C)n1C -7.24%
COc1ccc(NC(=O)[C@@H](c2ccccc2)N2Cc3ccccc3C2=O)cc1OC 1.61%
CC1CCc2c(sc(NC(=O)COc3ccccc3)c2C(=O)Nc2ccccc2Cl)C1 (centres undefined) -6.63%
Cc1ccc(CSCC(=O)N2CCN(c3cc(Cl)ccc3C)CC2)cc1 7.45%
Cc1ccc(-n2nc(C(=O)NCCN(C)C)c(=O)n(C)c2=O)cc1 3.35%
COc1ccc(C2C(C(N)=O)=C(C)Nc3nc(-c4ccccc4Cl)nn32)cc1 (centres undefined) 4%
Cc1ccc2oc(C(=O)N(Cc3ccccc3F)C3CCS(=O)(=O)C3)c(C)c2c1 (centres undefined) -11%
Cc1[nH]c2ccccc2c1C(=O)C(=O)NC1CC(=O)N(c2cccc(F)c2)C1 (centres undefined) -2.97%
COc1cccc(NC(=O)CC2C(=O)OCCN2Cc2ccccc2)c1 (centres undefined) 2.68%
CCCCOc1ccc(-c2cc3c(=O)n(CC(=O)Nc4ccc(Cl)cc4Cl)ccn3n2)cc1 -2.7%
O=C(CSc1nc2c(cnn2-c2ccc(F)cc2)c(=O)[nH]1)Nc1ccc(Br)cc1 11.3%
Cc1ccc(-c2nn(CC(=O)NC3CCCCC3)c3c2cnc2ccc(F)cc23)cc1C -13.7%
CCOc1cccc2cc(-c3nnc(Nc4ccc(F)c(Cl)c4)s3)c(=O)oc12 0.841%
COc1cccc(CNC(=O)c2cc(=O)[nH]c3ccc(S(=O)(=O)N4CCCCC4)cc23)c1 -1.56%
COc1ccccc1CNC(=O)c1ccc2c(c1)sc1nc(-c3ccc(F)cc3)cn12 -1.83%
Cc1cccc(C)c1Nc1c(-c2ccc(Cl)s2)nc2ncccn12 4.08%
Cc1ccc(Cl)cc1NC(=O)CN(C)S(=O)(=O)c1ccc2c(c1)n(C)c(=O)c(=O)n2C -8.81%
COc1ccc(CCNC(=O)c2cc(-c3ccccc3)nc3ccccc23)cc1OC 1.08%
COC(=O)c1scc(-c2ccc(C)cc2)c1S(=O)(=O)Nc1cccc(C(F)(F)F)c1 1.23%
CCn1cc(C(=O)OCC(=O)Nc2cc(C)cc(C)c2)c(=O)c2ccc(C)nc21 -6.57%
O=C(CSc1nc2ccccc2c(=O)n1CCC(=O)NC1CCCCC1)Nc1ccccc1Cl 1.47%
COC(=O)c1sc2cccc(F)c2c1S(=O)(=O)Nc1cc(OC)cc(OC)c1 -9.6%
Cc1nn(CCCC(=O)NCc2ccccc2)c(=O)c2nn(-c3ccccc3)c(C)c12 0.658%
CCC(=O)N1CCc2cc(S(=O)(=O)NCCC(=O)Nc3ccc(OC)c(Cl)c3)ccc21 -18.6%
CCOc1ccc(CC(=O)Nc2nnc3n2CCS3)cc1 0.986%
O=C(CSc1cn(CC(=O)N2CCCCCC2)c2ccccc12)Nc1ccccc1F -14%
CCc1nnc2c(NCc3ccccc3OC)nc3ccccc3n12 -14.6%
CC(C)c1nnc(N2C(=O)c3oc4ccccc4c(=O)c3C2c2cccc(O)c2)s1 (centres undefined) 1.47%
COC(=O)CNC(=O)C(Cc1ccccc1)NS(=O)(=O)c1ccc2c(c1)c(=O)n(C)c(=O)n2C (centres undefined) 1.99%
CCN(C(=O)C1CCN(S(=O)(=O)c2ccc3c(c2)CCCN3C(=O)C2CCC2)CC1)c1cccc(C)c1 -12.5%
Cc1c(Cl)cccc1NC(=O)c1cnc2sc(N3CCCC3)nn2c1=O -11.9%
Cc1ccc(NC(=O)Cn2c(=O)n(CCCCCC(=O)NCc3ccc(F)cc3)c(=O)c3sccc32)c(C)c1 -17.5%
COCCN1Cc2cccc(C(=O)Nc3ccc(C)cc3C)c2C1=O 0.0743%
Cc1cc2c(cc1S(=O)(=O)N1CCC(C)CC1)OCC(=O)N2 7.64%
O=C(COc1ccccc1)Nc1ccc(S(=O)(=O)N(Cc2ccccc2)c2ccccc2)cc1 0.547%
Cc1c(C(=O)NCc2ccc(N(C)C)cc2)oc2c1-c1nn(Cc3cccc(Cl)c3)cc1CC2 0.0257%
COc1ccc(-c2nc(-c3ccccc3)c(-c3ccccc3)[nH]2)cc1Br -5.85%
CCCC12CN3CC(CCC)(CN(C1)C3c1c[nH]c3ccccc13)C2=O (centres undefined) -13.4%
Cc1ccc(-c2nnc(SCC(=O)N3CCc4ccccc43)o2)cc1 0.152%
Cc1cc(C)cc(NC(=O)Cn2c(=O)oc3cc(S(=O)(=O)N4CCCC4)ccc32)c1 -9.08%
